Results from US20190016771A1 (Hoffmann-La Roche, published 2019).

Target: T1, human 4-1BB (CD137) on the cell surface (human, UniProt Q07011 24-255)
T1 construct: whole, on cells; also called HeLa-huCD137-NF-kB-luciferase reporter cells
Experiment: flow cytometry on activated human CD8+ T cells (PBMC), detection with PE-labelled anti-human IgG F(ab')2-specific goat F(ab')2, median fluorescence, baseline corrected
Experimental: Plates were centrifuged 4 minutes with 400×g and at 4° C. and supernatant was discarded. If cells were fixed before acquisition by flow cytometry they were washed once with 200 μL/well DPBS and then stained for 30 min at 4° C. with […] DPBS containing 1:1000 diluted LIVE/DEAD Fixable Aqua Dead Cell Stain (Life technologies, Molecular Probes, Cat-No.: L34957). If cells were acquired the same day and DAPI was used to discriminate dead cells this staining step was skipped. Afterwards cells were washed once with 200 μL cold FACS buffer (DPBS supplied with 2% (v/v) FBS, 5 mM EDTA pH8 (Amresco, Cat. No. E177) and 7.5 mM sodium azide (Sigma-Aldrich S2002)). Next, 50 μL/well of 4° C. cold FACS buffer containing FAP-targeted CMP trimeric 4-1BB ligand-containing antigen binding molecule, DP47-targeted CMP trimeric 4-1BB ligand-containing antigen binding molecule or not-specific binding huIgG1 P329G LALA control antibody were added and cells were incubated for 120 minutes at 4° C. Cells were washed four times with 200 μL/well 4° C. FACS buffer. […]

T1 sequence (Q07011 24-255): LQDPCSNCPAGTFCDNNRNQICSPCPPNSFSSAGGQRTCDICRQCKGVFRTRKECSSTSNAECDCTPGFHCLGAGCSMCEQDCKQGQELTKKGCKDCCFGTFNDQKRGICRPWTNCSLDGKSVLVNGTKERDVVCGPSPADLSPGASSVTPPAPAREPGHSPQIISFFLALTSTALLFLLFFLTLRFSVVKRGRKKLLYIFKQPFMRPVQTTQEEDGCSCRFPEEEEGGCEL

B1: DP47 untargeted human CMP (CMPtd) trimeric 4-1BBL(71-254)-containing antigen binding molecule (other)
chain: [… about 100 residues …]GSGFDYWGQGTLVTVSSASTKGPSVFPLAPSSKSTSGGTAALGCLVKDYFPEPVTVSWNSGALTSGVHTFPAVLQSSGLYSLSSVVTVPSSSLGTQTYICNVNHKPSNTKVDKKVEPKSCDGGGGSGGGGSEEDPCACESLVKFQAKVEGLLQALTRKLEAVSKRLAILENTVVSGGGGSGGGGSGGGGSGGGGSREGPELSPDDPAGLLDLRQGMFAQLVAQNVLLIDGPLSWYSDPGLAGVSLTGGLSYKEDTKELVVAKAGVYYVFFQLELRRVVAGEGSGSVSLALHLQPLRSAAGAAALALTVDLPPASSEARNSAFGFQGRLLHLSAGQRLGVHLHTEARARHAWQLTQGATVLGLFRVTPEIPAGLPSPRSE
light: [… about 100 residues …][… about 100 residues …]
notes: Untargeted control of m1; trimerizes via the CMP trimerization domain; also called trimeric DP47-huCMP-4-1BBL
In the case of B1, the “EC50 (read off the curve)” value is reported as about 0.6 nM.
